Measurements reported in the RNAGym collection of RNA variant scans (doi:10.7554/elife.90254).
The source gives no read counts; variants with many changes may rest on few reads.

B1: LINE1-mini (parent)
chain: GGCAGAGCUCAACACAGCGUGGCAAAGUGGCUGUGGCUAGACUGCC

Variants of: B1
Experiment: self-cleavage, relative activity (ratio to wild type); higher = more cleavage; in vitro, sequencing; the parent is a self-cleaving ribozyme
G2U A12G C46A showed a self-cleavage of 0.03. Variant G2C G33C G35U G40C has a self-cleavage of 0.02. In the case of G2U A4C C13U, the self-cleavage is reported as 0. G2U A14C U32G gave a self-cleavage of 0.21. G2U A12G U43G G44C showed a self-cleavage of 0.02. In the case of G2U A25G A41U, the self-cleavage is reported as 0.02. G2C U9G C13U C31G C46G showed a self-cleavage of 0.02. In the case of G2U A14U C15G G36A G40U, the self-cleavage is reported as 0.02. With G2U A16U U38C C42U the self-cleavage was 0.08. Variant G2C U28G G35A G44A has a self-cleavage of 0.03. For G2U C3U A4U A12G C37A, the self-cleavage was 0.05. Work on G2C U9G U38G C45G yielded a self-cleavage of 0.02. G2U A6U G21A A26C gave a self-cleavage of 0.06. Work on G2U A12C G22A C42A C46G yielded a self-cleavage of 0. G2U C3U G5C C8U C13A C18A C37G A41C C45G gave a self-cleavage of 0.01. With G2U C3A C10A G36A the self-cleavage was 0.03. In the case of G2U A6U G44U, the self-cleavage is reported as 0.1. G2U C3A C23U G35C showed a self-cleavage of 0.04. For G2U A4G A14G, the self-cleavage was 0.05. G2U A24G G36A U38C G40A gave a self-cleavage of 0.01. In the case of G2C G40C C42A G44C, the self-cleavage is reported as 0.11. With G2C U20A A25G G27A G36U the self-cleavage was 0.31. For G2U A41U C42U G44U, the self-cleavage was 0.16. With G2U A14G G36A the self-cleavage was 0.01. Variant G2U A26U G27A C37G U38A has a self-cleavage of 0.01. For G2U A16G C31A, the self-cleavage was 0.02. With G2C U9A G29U G30C G36A the self-cleavage was 0.11. With G2C U9A A25G C37G the self-cleavage was 0.11. G2C G21C U43C showed a self-cleavage of 0.05. G2U A4C A14G G19A U32G showed a self-cleavage of 0.02. G2U C3A U9A A11U A16U gave a self-cleavage of 0.03. G2C U32C C37G showed a self-cleavage of 0.01. For G2U A14U A24C U34A U38G, the self-cleavage was 0.04. G2C G36U U38A showed a self-cleavage of 0.05. For G2C G19U U32C U43C, the self-cleavage was 0.08. G2U C8A G27C gave a self-cleavage of 0.02. In the case of G2U A26U A39G, the self-cleavage is reported as 0.02. G2C U28C U32C G35A C37A A39G showed a self-cleavage of 0.04. Work on G2U C3A U32A yielded a self-cleavage of 0.05. Variant G2U A26G G35U has a self-cleavage of 0.02. For G2C G21C C23U G29U, the self-cleavage was 0.3. Work on G2U A16G C18A yielded a self-cleavage of 0. G2U A14U G30U G36A C42G U43G gave a self-cleavage of 0.13. G2C G33U C37U U43C showed a self-cleavage of 0.02. Work on G2U A26C C31U C37A yielded a self-cleavage of 0.03. Work on G2U A25C U43C C46A yielded a self-cleavage of 0. In the case of G2C G29U C45A, the self-cleavage is reported as 0.62. G2U A4U U28G G40A showed a self-cleavage of 0.13. Variant G2U A4G C15G G21U G35A C37A G40A has a self-cleavage of 0.03. For G2C G35C C37G A41U, the self-cleavage was 0.02. Variant G2C G40U C42G has a self-cleavage of 0.04. Variant G2U C3A U28A A39U has a self-cleavage of 0.21. In the case of G2U A12C C15A C46A, the self-cleavage is reported as 0.01. Work on G2C U9A G36C U43A yielded a self-cleavage of 0.04. G2U A12C G17A gave a self-cleavage of 0.02. In the case of G2C G27U G29U, the self-cleavage is reported as 0.1. For G2U C3A G17U, the self-cleavage was 0.07. Work on G2U A6G U20C C45U yielded a self-cleavage of 0.02. Work on G2U C3U G30C G33A G40A yielded a self-cleavage of 0.04. Work on G2U A4U G5C C46G yielded a self-cleavage of 0.04. With G2C U9G A25G A26G C31U U32C the self-cleavage was 0.03. With G2U C3U G5U A24G the self-cleavage was 0.02. With G2U A24G U28A C37U the self-cleavage was 0.05. Work on G2U C3G U9C G17C A24C C31U A39G U43C yielded a self-cleavage of 0.01. Variant G2C U9C A25C has a self-cleavage of 0.02. Work on G2C G30A C31A yielded a self-cleavage of 0.05. In the case of G2U A24G G30C U32C, the self-cleavage is reported as 0.05. In the case of G2U C3G C10A C18A C23G, the self-cleavage is reported as 0.03. Work on G2U A4C A6U G21A G29U C45G yielded a self-cleavage of 0.16. For G2U A26U G30C U32A C46U, the self-cleavage was 0.02. With G2U C8A A26G U32A the self-cleavage was 0.01. Work on G2U A26U C42U yielded a self-cleavage of 0.01. For G2C G22C A26C, the self-cleavage was 0.07. With G2U A4C C13G G22C G30U the self-cleavage was 0.08. In the case of G2U C8A G35U C37A, the self-cleavage is reported as 0.02. In the case of G2U C8A U34G, the self-cleavage is reported as 0.01. Work on G2U A24C C31A A39C U43G C46A yielded a self-cleavage of 0. Variant G2U C3U G17U G40U C46A has a self-cleavage of 0.04. Work on G2U C3A A26U G33U yielded a self-cleavage of 0.09. For G2U A4C A11U A14C, the self-cleavage was 0.02. G2U A14G G30C U38G C42G showed a self-cleavage of 0.03. Variant G2C U32C A39C C42U has a self-cleavage of 0.01. Variant G2U A4G C10A G22A A39U G40A has a self-cleavage of 0.01. G2U A6G A12G G17C G19C U34A gave a self-cleavage of 0. Variant G2C U9A C45U has a self-cleavage of 0.07. G2C G19U G33U U43A G44C gave a self-cleavage of 0.06. Variant G2C G27U G44A has a self-cleavage of 0.16. G2U C3U G21U C23A C37G showed a self-cleavage of 0.01. G2U A4U U28A C46G showed a self-cleavage of 0.03. Variant G2U C8A U9A G30C C45A has a self-cleavage of 0.03. With G2U A24C U34G C42U the self-cleavage was 0. Variant G2U A26G C42U C45A C46U has a self-cleavage of 0.03. For G2U A14C G27A G35C, the self-cleavage was 0.11. Work on G2C G27C A39U yielded a self-cleavage of 0.1. For G2U A12G C15U U32C, the self-cleavage was 0.04. Work on G2U A24U G27U yielded a self-cleavage of 0.03. For G2C U20A U43A, the self-cleavage was 0.06. Variant G2C U32A G36C has a self-cleavage of 0.01. For G2C U9G C15A U43G, the self-cleavage was 0.01. For G2U A24G U28A C31U A39U, the self-cleavage was 0.02. Variant G2U A16C G17U has a self-cleavage of 0.02. Work on G2C G36U U43G yielded a self-cleavage of 0. With G2U A11C G21A A24U G35C C45U the self-cleavage was 0. For G2U A6U C18U G22A, the self-cleavage was 0.23. Work on G2C G21U G30A yielded a self-cleavage of 0.28. Work on G2U C8A C13A yielded a self-cleavage of 0.04. Work on G2U A11G A24G U38G C42A yielded a self-cleavage of 0.01. Variant G2U A6C U28G has a self-cleavage of 0.02. For G2C U28C U32G U34C, the self-cleavage was 0.01. For G2C U20C G33U C37A A41G C46A, the self-cleavage was 0.02. Work on G2U A12G A26C G44A yielded a self-cleavage of 0. G2U C8G G19C U34C G40U showed a self-cleavage of 0.02. Work on G2U C8G G27C C37G C45A yielded a self-cleavage of 0.01. Work on G2U C8G A39G yielded a self-cleavage of 0.02. For G2U A16U A25U, the self-cleavage was 0.01. For G2U A12C A14U A16C C31A C45A, the self-cleavage was 0.01. With G2U A26G G44U the self-cleavage was 0.12. Variant G2U A4C C18A has a self-cleavage of 0.07. Work on G2U A4U C8U yielded a self-cleavage of 0.11. G2U A4G G17A U20G C23A A39C gave a self-cleavage of 0.02. For G2U C3G C15G C18A G30C U38A U43A, the self-cleavage was 0. In the case of G2U A25G A26G G29A, the self-cleavage is reported as 0.05. In the case of G2U A16G G40A, the self-cleavage is reported as 0.02. In the case of G2C G19U G27C, the self-cleavage is reported as 0.07. With G2U C3A C8G C13G U28A the self-cleavage was 0.05. For G2U A25C G27A C37A C45A, the self-cleavage was 0.06. G2C U20C A39C C42A showed a self-cleavage of 0.03. In the case of G2C U9G A25U U32C, the self-cleavage is reported as 0.01. With G2U A4C G5A C8A A16C C18A G35C the self-cleavage was 0.13. Work on G2C U9C G27U G33A yielded a self-cleavage of 0.02. Variant G2U A4U A25U C45G has a self-cleavage of 0.08. G2C G30C G33C showed a self-cleavage of 0.17. G2U A24U G30A C42G G44A gave a self-cleavage of 0.01. With G2U C8A G21U A24C G40U the self-cleavage was 0.01. For G2U C8G A25C G30A A39G, the self-cleavage was 0.01. With G2U A6U G29U C37A the self-cleavage was 0.02. G2U A4C G21A U28C G44A showed a self-cleavage of 0.1. In the case of G2U C8A C18G U20A A39C, the self-cleavage is reported as 0.01. G2C G33A G35U C45U showed a self-cleavage of 0.02. In the case of G2U A11U A26G, the self-cleavage is reported as 0.01. G2C G19C G33C U38C G44U showed a self-cleavage of 0. G2U A11C C18G showed a self-cleavage of 0. With G2U C3A A12G A16C G21C G22U U32G A41C the self-cleavage was 0.02. Variant G2C G21U U28G G40U has a self-cleavage of 0.03. For G2C G33A U34C, the self-cleavage was 0.03. With G2U A14G G19U the self-cleavage was 0.09. Work on G2U A12G G21U A39U yielded a self-cleavage of 0.01. G2U A12G C15U G19U G44U C45U gave a self-cleavage of 0. G2C G27A U38A C46G showed a self-cleavage of 0.04. G2U C3U A6C G22A G40A gave a self-cleavage of 0.02. In the case of G2U A14U A41U, the self-cleavage is reported as 0.04. G2U A4C G17C G30U showed a self-cleavage of 0.01. G2C G27A G40C gave a self-cleavage of 0.03. In the case of G2C G21A G27C, the self-cleavage is reported as 0.07. With G2C U32C C46U the self-cleavage was 0.13. G2U A6C A12U G17A C23A A41C showed a self-cleavage of 0.02. Work on G2U C3U C13U A14U C15G yielded a self-cleavage of 0.05. For G2U C3A A16U A26U, the self-cleavage was 0.11. In the case of G2U A4C U9G G17A, the self-cleavage is reported as 0.03. Variant G2C G22A C42G C46G has a self-cleavage of 0.01. In the case of G2U A11U A25U G35A, the self-cleavage is reported as 0.03. For G2C G30C U34G G36U, the self-cleavage was 0.03. In the case of G2C U38G C42A C46G, the self-cleavage is reported as 0.02. G2C U28C G35C U43G C46U gave a self-cleavage of 0.01. Variant G2C G21A C23U G35C U43C has a self-cleavage of 0.32. For G2U A14C U28A C46U, the self-cleavage was 0. Variant G2U C3A G30U G36A has a self-cleavage of 0.15.
